PubChem BioAssay AID360 (National Center for Advancing Translational Sciences (NCATS), 2006)
Out of some 48,000 compounds screened, about 550 (1.1%) were called active. About 4% were inconclusive and are not listed. Cut-off read from the data, not from the text of the source: active = potency below about 15 µM; inconclusive = mostly about 16 µM to 33 µM; inactive = weaker than that. Some of the results follow.

These compounds were tested against Lysosomal acid glucosylceramidase (Homo sapiens) (UniProt P04062) (assay: Glucocerebrosidase). Conditions: purified enzyme, resorufin glucoside fluorescence (screen aimed at inhibitors), 20 min.
Summary of the method: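 Compounds titrated against 0.2 nM normal enzyme, 30 uM resorufin beta-D-glucopyranoside substrate, citrate/phosphate buffer with taurocholate and tween-20, pH 5.9. Reaction ran 20 min at room temperature; fluorescence (Ex 548/Em 600) gave AC50.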
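Note: the screen sought inhibitors.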
Potency is the fitted concentration of half-maximal effect.

Sequence of UniProt P04062 (P04062 whole entry, looked up): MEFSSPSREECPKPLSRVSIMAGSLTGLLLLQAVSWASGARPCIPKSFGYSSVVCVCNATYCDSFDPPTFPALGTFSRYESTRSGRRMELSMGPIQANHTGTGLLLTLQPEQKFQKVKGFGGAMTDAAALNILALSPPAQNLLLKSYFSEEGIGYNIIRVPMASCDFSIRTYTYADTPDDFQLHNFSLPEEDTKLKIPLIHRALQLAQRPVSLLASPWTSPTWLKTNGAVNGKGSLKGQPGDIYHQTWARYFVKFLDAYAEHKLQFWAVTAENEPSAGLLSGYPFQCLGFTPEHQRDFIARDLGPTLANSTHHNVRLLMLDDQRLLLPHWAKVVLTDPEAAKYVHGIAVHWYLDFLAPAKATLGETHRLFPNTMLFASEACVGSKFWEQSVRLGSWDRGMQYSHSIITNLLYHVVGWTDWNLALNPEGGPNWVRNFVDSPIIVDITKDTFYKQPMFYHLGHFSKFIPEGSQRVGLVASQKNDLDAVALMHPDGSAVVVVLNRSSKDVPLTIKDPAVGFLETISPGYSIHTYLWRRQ

Potency, inactive:
COc1cccc(-c2nc(-c3ccccn3)no2)c1OC > 76.9 µM
Cc1ccc(Cn2c(-c3nonc3N)nc3ccccc32)cc1 > 76.9 µM
Cc1ccc(C(CC(=O)N2CCCC2)c2ccccc2)c(O)c1C (stereo not given) > 76.9 µM
O=C(c1cnsn1)N1CCN(c2ccccc2)CC1 > 76.9 µM
O=C(COc1ccccc1)Nc1ccccc1N1CCN(c2ccccc2)CC1 > 76.9 µM
COc1ccc2cc(CN(Cc3ccco3)C(c3nnnn3C3CCCCC3)C(C)C)c(=O)[nH]c2c1 (stereo not given)
Cc1cn(C2C=CC(CO)O2)c(=O)[nH]c1=O (stereo not given) > 76.9 µM
CCOC(=O)c1cccc(NC(=O)Nc2cc(OC)ccc2OC)c1 > 76.9 µM
CCc1cccc(NC(=O)c2ccc(Br)o2)c1 > 76.9 µM
CCc1ccc(N2C(=O)C3ON(c4ccccc4)C(c4ccco4)C3C2=O)cc1 (stereo not given) > 76.9 µM
COc1ccccc1CNC(=O)CSc1nc2nc(C)cc(C)n2n1 > 76.9 µM
COc1cc(-c2noc(CCC(=O)Nc3cccnc3)n2)cc(OC)c1OC > 76.9 µM
Cc1onc(-c2c(Cl)cccc2Cl)c1C(=O)NC(C)(C)CO > 76.9 µM
Nc1nnc(-c2ccncc2)s1 > 76.9 µM
O=C1Nc2ccccc2C(O)(C(=O)NC2CC2)N1c1ccc(Cl)c(Cl)c1 (stereo not given) > 76.9 µM
CC(C)c1[nH]nc2c1C(C(C)C)C(C#N)=C(N)O2 (stereo not given) > 76.9 µM
CCc1ccccc1NC(=O)Cn1nnc(-c2cccnc2)n1 > 76.9 µM
Cc1cc2c(nn1)CCC/C2=N\O > 76.9 µM
CC(C)CNS(=O)(=O)c1ccc(CCC(=O)Nc2ccc3c(c2)OCO3)cc1 > 76.9 µM
CCN(CC)CCCN(C(C)=O)c1nc(-c2cc(OC)ccc2OC)cs1 > 76.9 µM
O=C(c1ccc2c(c1)OCO2)N(c1ccccc1)C1C=CS(=O)(=O)C1 (stereo not given) > 76.9 µM
Cc1cc(C)c2oc(=O)cc(CN3CCOCC3)c2c1 > 76.9 µM
Cc1cc(C(=O)CSc2nnc(-c3cccc(F)c3)n2N)c(C)n1Cc1ccc2c(c1)OCO2 > 15.4 µM
CCn1c(SCC(=O)N2CCOCC2)nc2oc3c(Cl)cc(Cl)cc3c(=O)c2c1=O > 76.9 µM
O=C(Cn1c(C(=O)N2CCN(C3CCCCC3)CC2)cc2sccc21)c1ccccc1
Cc1nnc(SC(C)C(=O)Nc2ccc3c(c2)OCCO3)s1 (stereo not given) > 76.9 µM
Cc1ccc(Cn2nnc3c(=O)n(CC(=O)NCC4CCCO4)cnc32)cc1 (stereo not given) > 76.9 µM
COCC(=O)N(Cc1cc2ccccc2[nH]c1=O)c1ccccc1OC > 76.9 µM
Cc1c(NC(=O)c2c(F)c(F)c(F)c(F)c2F)c(=O)n(-c2ccccc2)n1C > 76.9 µM
Cc1cc(C)n(-c2nc3ccccc3c(=O)n2OCC(=O)OCc2ccccc2)n1 > 76.9 µM
O=C(CC1(O)C(=O)Nc2cc(Cl)cc(Cl)c21)c1ccncc1 (stereo not given) > 76.9 µM
CCc1cccc2c(=O)c(C(=O)N3CCCCCC3)c[nH]c12 > 76.9 µM
CC(C)C(C(=O)Nc1nccs1)c1ccccc1 (stereo not given) > 76.9 µM
COCc1nnc(NC(=O)c2ccco2)s1 > 76.9 µM
COc1ccc(OC)c(C(c2nnnn2Cc2ccccc2)N2CCC(C(N)=O)CC2)c1 (stereo not given) > 76.9 µM
Cc1cc(NCCCCO)n2c(nc3ccccc32)c1C#N
COC(=O)c1ccc(=O)n(-c2ccc(OC)cc2)c1 > 76.9 µM
CCOC(=O)c1c(C)c(C(=O)NCc2cccs2)c(C)n1C > 76.9 µM
CCCC(=O)Nc1ccc(OCC(=O)OC)cc1 > 76.9 µM
O=C(NCc1ccco1)c1cc(-c2ccc(F)cc2)on1 > 76.9 µM
CCOC(=O)c1ccc(NC(=O)c2cnccn2)cc1 > 76.9 µM
Cc1ccc2nc(N3CCC(C(=O)O)CC3)nc(-c3ccccc3)c2c1 > 76.9 µM
O=C(c1scc2c1CCCC2)N1CCOCC1 > 76.9 µM
c1ccc(N2CCN(c3nc4cc5c(cc4s3)OCO5)CC2)cc1 > 76.9 µM
O=C(Cn1cccc1C(=O)c1ccccc1)NCCCN1CCOCC1 > 76.9 µM
CCc1ccc(OCC(=O)Nc2ncc3c(n2)CC(C)(C)CC3=O)cc1 > 76.9 µM
O=C(c1cnn2c(C(F)(F)F)cc(-c3ccco3)nc12)N1CCc2ccccc2C1 > 76.9 µM
Cc1noc(C)c1COC(=O)CCc1nc2ccccc2s1 > 76.9 µM
CCOc1ccc(NC(=O)C2CCN(C(=O)NCc3ccccc3)CC2)cc1 > 76.9 µM
CNc1cc(C)nc(-n2nc(C)cc2C)n1 > 76.9 µM
COCC(C)NC(=O)c1ccccc1OC(C)=O (stereo not given) > 76.9 µM
Cc1ccc2cc(CN(Cc3cccs3)Cc3nnnn3CC3CCCO3)c(=O)[nH]c2c1 (stereo not given) > 76.9 µM
O=C(CN1CCOCC1)n1c2ccccc2c2ccccc21 > 76.9 µM
Cc1cccc(Cn2c(NCC(C)O)nc3c2c(=O)n(C)c(=O)n3C)c1 (stereo not given) > 76.9 µM
c1ccc(C2CC(c3ccccc3)n3ncnc3N2)cc1 (stereo not given) > 76.9 µM
COCC(=O)N(Cc1nc2ccccc2c(=O)[nH]1)Cc1cccs1 > 76.9 µM
CC(C)C[C@H](NC(=O)NCCc1ccc(Cl)cc1)C(=O)O > 76.9 µM
c1ccc(N2CCN(CCc3nnc4n3CCCCC4)CC2)cc1 > 76.9 µM
CCOC(=O)c1cccc(NC(=O)CCc2nc(-c3ccc(C)cc3)no2)c1 > 76.9 µM
COc1ccc(-c2nnn(CC(=O)OC3CCCCC3)n2)cc1OC > 76.9 µM
CCCCn1c(SCC(N)=O)nnc1-c1ccco1 > 76.9 µM
COC(=O)Cn1cc(C(=O)c2cccs2)c2ccccc21 > 76.9 µM
Cc1onc(COc2ccccc2O)c1Br > 76.9 µM
COc1ccc(CN/C(C)=C(/C#N)C(N)=O)cc1OC > 76.9 µM
O=C(Nc1cccc(Cl)c1)Nc1ccc2c(c1)OCO2 > 76.9 µM
OC1(c2ccc(F)cc2)CCN(Cc2ccccc2)C1 (stereo not given) > 76.9 µM
Cn1c(N)c(C(=O)NCc2ccccc2Cl)sc1=S > 76.9 µM
Cc1c(NC(=O)C(C)OC(=O)CC2Sc3ccccc3NC2=O)c(=O)n(-c2ccccc2)n1C (stereo not given) > 76.9 µM
COC(=O)c1cc(S(=O)(=O)N2CCOCC2)ccc1Sc1ccccc1N > 76.9 µM
O=C(CSc1nnc(-c2ccco2)n1CC1CCCO1)c1ccc(F)cc1 (stereo not given) > 76.9 µM
Cc1ccc(S(=O)(=O)NC(=O)c2cc(C)n(CCCN3CCOCC3)c2C)cc1
CC(C)c1ccc(Nc2nc(NCc3ccco3)nc(N3CCOCC3)n2)cc1
CN1/C(=C/C(=O)C2CCC2)Sc2ccccc21 > 76.9 µM
O=C(OCC#CCSc1nnc(-c2ccc(Br)cc2)o1)c1ccco1 > 76.9 µM
CCCCN(CCCC)CCCNC(=O)CC1Oc2ccc(C)cc2NC1=O (stereo not given) > 76.9 µM
CCN(CC)c1ccc(-n2cc3c(=O)n(C)c(=O)n(C)c3c2)cc1 > 76.9 µM
O=C1C(Cl)=C(NCC2CCCO2)C(=O)N1CCc1ccccc1 (stereo not given) > 76.9 µM
CC(=O)c1cc(-c2ccccc2)n(CC(=O)NCc2cccs2)c1C > 76.9 µM
CCN1C(=O)CC(N2CCN(c3ccc(C(=O)c4ccccc4)cc3)CC2)C1=O (stereo not given) > 76.9 µM
CCCOC(=O)Nc1nc2ccccc2o1 > 76.9 µM
COc1ccc(S(=O)(=O)NCc2ccco2)cc1-c1nnc2c3ccccc3c(C)nn12 > 76.9 µM
Cc1cc(C)nc(Nc2n[nH]c(Cc3ccccc3)n2)n1 > 76.9 µM
Cc1cc(N2CCc3ccccc32)n2ncnc2n1 > 76.9 µM
CCOC(=O)Nc1cc(OC)c(OC)cc1Cc1nccc2cc(OC)c(OC)cc12 > 76.9 µM
COCCNC(=O)CN(C(=O)CCC(=O)Nc1cc(C)on1)c1ccccc1C > 76.9 µM
O=C(Nc1cccc2ccccc12)OC1C=CS(=O)(=O)C1 (stereo not given) > 76.9 µM
Cc1csc(-c2cnn(-c3ccccc3)c2NC(=O)c2ccccc2)n1 > 76.9 µM
CCCCOc1ccc(S(N)(=O)=O)cc1 > 76.9 µM
CCOC(=O)CC1=C(C(=O)OCC)C(c2ccc(C)o2)C(C#N)=C(N)O1 (stereo not given) > 76.9 µM
COC(=O)Nc1ccc(OC)c(OC)c1 > 76.9 µM
CCOCCCNC(=O)c1ccccc1SCC > 76.9 µM
Cc1nnc(SCC(=O)NCc2cccs2)[nH]c1=O > 76.9 µM
CCN(CC(=O)NCc1cccs1)c1nnnn1-c1ccccc1 > 76.9 µM
O=C(NCCC1=CCCCC1)C1CCCN(S(=O)(=O)c2ccccc2)C1 (stereo not given) > 76.9 µM
CCOc1ccccc1N(CC(=O)NC(C)(C)C)C(=O)Cn1nnc(-c2ccc(C)o2)n1 > 76.9 µM
